PubChem BioAssay AID2147 (National Center for Advancing Translational Sciences (NCATS), 2009)
Among all 230,000 compounds or so, about 3,600 (1.6%) were called active. Inconclusive means that the source gave no clear call. Such entries were picked first, then a sample of the others. Calls follow the shape of the dose curve; as a rule, active = well fitted inhibition curve with a large enough effect (not every such curve was filed as active); inconclusive = small, poorly fitted or top-dose-only effect, or another doubt; inactive = no such curve, though single readings can be large or run the other way. Potencies beside an inconclusive call are fits to weak or partial responses and may not hold up. The source holds several records for some structures; these can differ, active in one and inactive in another.

Target: Lysine-specific demethylase 4E (Homo sapiens) (UniProt B2RXH2)
Test: qHTS Assay for Inhibitors of Human Jumonji Domain Containing 2E (JMJD2E)
Details: JMJD2E catalytic domain, FDH-coupled NADH fluorescence (FDH is formaldehyde dehydrogenase); series mostly up to 57.1 µM
Also: nearly all actives have a fitted effect of over 50% in size.
Potency is read from the fitted curve at half-maximal effect; tags tell the direction and shape of the fitted curve.

Chain of UniProt B2RXH2 (B2RXH2 whole entry, looked up, the tested form may be a part): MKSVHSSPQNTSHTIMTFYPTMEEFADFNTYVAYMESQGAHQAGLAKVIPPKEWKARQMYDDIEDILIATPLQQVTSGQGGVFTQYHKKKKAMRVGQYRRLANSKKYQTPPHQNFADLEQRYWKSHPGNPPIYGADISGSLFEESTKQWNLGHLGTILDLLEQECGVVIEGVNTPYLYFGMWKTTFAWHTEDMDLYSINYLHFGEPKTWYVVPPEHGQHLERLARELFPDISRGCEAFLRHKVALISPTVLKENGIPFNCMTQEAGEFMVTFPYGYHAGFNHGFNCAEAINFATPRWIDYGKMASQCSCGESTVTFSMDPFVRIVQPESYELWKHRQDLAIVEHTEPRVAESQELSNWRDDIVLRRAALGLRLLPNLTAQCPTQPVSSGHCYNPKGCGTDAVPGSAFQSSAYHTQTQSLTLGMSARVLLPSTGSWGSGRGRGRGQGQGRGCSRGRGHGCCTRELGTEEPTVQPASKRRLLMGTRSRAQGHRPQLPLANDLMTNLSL

SMILES	Potency
O=C(Nc1nc2ccsc2c(=O)s1)c1ccc(Cl)cc1	inactive
COc1ccccc1C(=O)Nc1ccc(OCc2nnc3c4ccccc4c(C)nn23)cc1	inconclusive: 35.5 µM [inhibitor, single point]
COc1ccccc1CNC(=O)c1c(N)n(CCCN2CCOCC2)c2nc3ccccc3nc12	inconclusive: 31.6 µM [inhibitor, partial curve]
Fc1ccccc1OCCCCCCN1CCCC1	inconclusive: 35.5 µM [inhibitor, single point]
Cc1c(O)c(=O)c2ccccc2n1C	inconclusive: 31.6 µM [inhibitor, partial curve]
COc1ccc(Oc2ccc(N/C=C3/CCCC3=O)cc2)cc1	inconclusive: 35.5 µM [inhibitor, single point]
CCSC1=N/C(=C\c2cccnc2)C(=O)N1c1ccccc1	inconclusive: 35.5 µM [inhibitor, single point]
O=[N+]([O-])c1ccc(NCCCNS(=O)(=O)c2ccccc2)cc1	inactive
COc1cc2c(cc1OC)[C@@H]1CC(=O)[C@@H](CC(C)C)CN1CC2	inconclusive: 28.2 µM [inhibitor, single point]
COc1ccccc1-c1nnc(NC(=O)CSc2nncn2C)s1	inconclusive: 35.5 µM [inhibitor, single point]
Cc1sc2nc(CN3CCCC3)nc(Cl)c2c1C	inconclusive: 28.2 µM [inhibitor, single point]
C[C@](N)(Cc1ccc(O)cc1)C(=O)O	inactive
Cc1ccc(C2C3CSCC=C3C(C#N)=C(N)C2(C#N)C#N)cc1 (stereo not given)	inconclusive: 22.4 µM [inhibitor, partial curve]
COc1ccc(-c2nc3c(n2O)CCCC3=O)cc1OC	inconclusive: 25.1 µM [inhibitor, partial curve]
CCCCNC(=O)CCC(=O)Nc1ccc2nc(N3CCCCC3)cc(C)c2c1	inconclusive: 25.1 µM [inhibitor, partial curve]
CCOC(=O)c1cc(C(=O)c2cc(Cl)ccc2O)coc1=N	inconclusive: 3.55 µM [inhibitor, single point]
CSc1ccccc1NC(=O)CN(Cc1ccccc1)S(C)(=O)=O	inactive
CCCCC1=CC2=CC(=O)C(C)(OC(=O)CC)C(=O)C2=CN1CCCCO (stereo not given)	active: 12.6 µM
COC(=O)c1c(SCc2ccc(C#N)cc2)nc(=O)[nH]c1C	inconclusive: 28.2 µM [inhibitor, single point]
Cc1cc(C(=O)OCC(=O)Nc2cc(C)on2)c2ccccc2n1	inconclusive: 39.8 µM [inhibitor, single point]
